From PubChem BioAssay AID504466 (National Center for Advancing Translational Sciences (NCATS), 2011)
Out of some 330,000 compounds screened, about 4,200 (1.3%) were called active. Inconclusive results, whose numbers are uncertain, are shown with a selection of clear calls. Calls follow the shape of the dose curve; as a rule, active = well fitted activation curve with a large enough effect; inconclusive = small, poorly fitted or top-dose-only effect; inactive = no such curve, though single readings can be large or run the other way. A potency beside an inconclusive call is a rough fit, not a confirmed value.

Assay: qHTS screen for small molecules that induce genotoxicity in human embryonic kidney (HEK293T) cells expressing luciferase-tagged ELG1; also: nearly all actives have a fitted effect of over 60% in size; as to activity change, positive = activation: % of control where 0% means no effect
Settings: HEK293T ELG1-luciferase reporter, luminescence, 16 h; series mostly up to 46 µM; activity change, positive = activation: at the top concentration
Summary of the method: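 Luminescence read-out: rising ELG1-luciferase signal, reflecting elevated ELG1 protein under genetic stress, flags genotoxic compounds. Cells were treated for 16 hr at 37 °C before ONE-Glo detection.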
Potency is read from the fitted curve at half-maximal effect; tags tell the direction and shape of the fitted curve.

| SMILES | Potency | activity change, positive = activation |
| --- | --- | --- |
| Cc1nnc2c3cnn(-c4ccc(Cl)cc4)c3ncn12 | active: 20.6 µM | – |
| COc1ccc(OC)c(C(c2c(O)nc(SC)[nH]c2=O)c2c(O)nc(SC)[nH]c2=O)c1 | inconclusive: 0.184 µM [activator, single point] | – |
| O=S(=O)(c1ccc(N2CCN(S(=O)(=O)c3ccc4c(c3)OCCO4)CC2)nc1)N1CCCC1 | – | inactive: -6.11% |
| COc1ccc(/C=N/n2c(-c3ccc(C)cc3)n[nH]c2=S)cc1OC | inconclusive: 23.1 µM [activator, partial curve, poor fit] | – |
| CCn1c2ccc(C)cc2c2nc3cc(C(=O)O)ccc3nc21 | inconclusive: 29.1 µM [activator, single point] | – |
| COCc1[nH][nH]c(=O)c1C=Nc1ccc(OC(F)(F)F)cc1 | – | inactive: 0.758% |
| O=C(COC(=O)c1ccc(N2CCCC2=O)cc1)c1ccccc1 | inconclusive: 5.8 µM [activator, partial curve] | – |
| S=C(Nc1ccccc1)c1nc2ccccc2s1 | inconclusive: 8.2 µM [activator, partial curve, poor fit] | – |
| CCOc1ccc(NS(=O)(=O)c2cccc(C(=O)NCC3(N(C)C)CCCCC3)c2)cc1 | – | inactive: 1.9% |
| c1cncc(-c2ccc3[nH]ccc3c2)c1 | inconclusive: 23.1 µM [activator, partial curve, poor fit] | – |
| CC(Oc1ccccc1)C(=O)Nc1ccc(NC(=O)c2ccccc2)cc1 (stereo unspecified) | inconclusive: 18.3 µM [activator, single point] | – |
| Cc1ccc(N/C=C/C(=O)c2ccc(C)cc2)cc1 | inconclusive: 1.78 µM [activator, full curve, poor fit] | – |
| O=Cc1cccc(OC(=O)/C=C/c2ccco2)c1 | inconclusive: 25.9 µM [activator, partial curve, poor fit] | – |
| CCOc1ccc(CN(C)C(=O)CNC(=O)c2ccc3ccccc3c2)cc1OC | – | inactive: -2.77% |
| Clc1ccc(OCCCc2nc(-c3ccncc3)no2)c(Cl)c1 | – | inactive: -4.87% |
| CCOC(=O)c1cc(-c2ccc(OC)cc2)nc2c1c(C)nn2CCC#N | – | inactive: -17.7% |
| N#Cc1ccsc1NC(=O)COC(=O)c1ccc(NC(N)=O)cc1 | active: 20.6 µM | – |
| Cc1cc(NCCCN2CCOCC2)n2ncc(-c3ccc(Cl)cc3)c2n1 | inconclusive: 18.4 µM [activator, partial curve, poor fit] | – |

| SMILES | Potency | activity change, positive = activation |
| --- | --- | --- |
| Cc1cc(C)n(-c2nnc(NC34CC5CC(CC(C5)C3)C4)nn2)n1 | inconclusive: 8.2 µM [activator, partial curve] | – |
| O=C(Nc1cccc(NC(=O)c2nccc3ccccc23)c1)c1ccco1 | inconclusive: 6.51 µM [activator, partial curve, poor fit] | – |
| COc1ccccc1C/C(N)=N/OC(=O)COc1ccc2ccccc2c1 | – | inactive: 0.18% |
| COc1ccc(/C=N/Nc2nc3ccccc3s2)cc1O | active: 2.31 µM | – |
| CC(=O)N(C)c1ccc(NC(=O)Nc2ccccc2C)cc1 | active: 20.6 µM | – |
| Cc1nc2sc(-c3ccccc3)cc2c(=O)n1-n1cccc1 | inconclusive: 3.66 µM [activator, full curve] | – |
| CCOC(=O)C1CCN(C(=O)CSCc2nc(-c3ccc(OCC)cc3)oc2C)CC1 | active: 20.6 µM | – |
| CCCC(=O)N1CCCC(c2nc(-c3cccs3)no2)C1 (stereo unspecified) | inconclusive: 16.4 µM [activator, partial curve, poor fit] | – |
| CC(C)(C)C(=O)NC(=S)Nc1sc2c(c1C#N)CCCCC2 | – | inactive: 12.9% |
| CCOC(=O)c1sc2nc(NC(=O)C3CC3)sc2c1C | inconclusive: 6.51 µM [activator, partial curve] | – |
| CCOc1ncccc1C(=O)NNC(=O)CSc1ccc(Cl)cc1 | – | inactive: 1.44% |
| CCOCC(=O)Nc1c(C(=O)Nc2ccc3c(c2)OCO3)oc2ccccc12 | inconclusive: 2.31 µM [activator, full curve, poor fit] | – |
| CCOc1cccc(C(=O)Nc2ccc3[nH]ncc3c2)c1 | inconclusive: 5.62 µM [activator, single point] | – |
| COc1ccc(-c2cc(=O)[nH]c3ccccc23)cc1 | – | inactive: 0.403% |
| CC(=O)Oc1ccc(-c2csc(Nc3ccc(Cl)cn3)n2)cc1 | inconclusive: 20.6 µM [activator, partial curve] | – |
| Cc1ccc2oc(C(=O)Nc3ccc(S(=O)(=O)Nc4onc(C)c4C)cc3)c(C)c2c1 | inconclusive: 18.3 µM [activator, partial curve, poor fit] | – |
| O=C(NCCOc1ccccc1)C1=CC=CN2CCS(=O)(=O)N=C12 | – | inactive: 1.75% |
| COc1ccc(NC(C#N)c2ccc(OC)cc2)cc1 (stereo unspecified) | inconclusive: 29.1 µM [activator, single point] | – |
